Experimental findings from PMC4336329 (PLoS ONE, 2015) are described below.

Out of some 310,000 compounds screened, about 14,000 (4.5%) showed an effect of 50% or more. The effect is printed as a negative number. The list shows a part of the results.
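Further: peak tail current of the secondary pulse compared with the same well before compound.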

Sequence of human ether-à-go-go-related gene (hERG) potassium channel (Q12809 whole entry, looked up): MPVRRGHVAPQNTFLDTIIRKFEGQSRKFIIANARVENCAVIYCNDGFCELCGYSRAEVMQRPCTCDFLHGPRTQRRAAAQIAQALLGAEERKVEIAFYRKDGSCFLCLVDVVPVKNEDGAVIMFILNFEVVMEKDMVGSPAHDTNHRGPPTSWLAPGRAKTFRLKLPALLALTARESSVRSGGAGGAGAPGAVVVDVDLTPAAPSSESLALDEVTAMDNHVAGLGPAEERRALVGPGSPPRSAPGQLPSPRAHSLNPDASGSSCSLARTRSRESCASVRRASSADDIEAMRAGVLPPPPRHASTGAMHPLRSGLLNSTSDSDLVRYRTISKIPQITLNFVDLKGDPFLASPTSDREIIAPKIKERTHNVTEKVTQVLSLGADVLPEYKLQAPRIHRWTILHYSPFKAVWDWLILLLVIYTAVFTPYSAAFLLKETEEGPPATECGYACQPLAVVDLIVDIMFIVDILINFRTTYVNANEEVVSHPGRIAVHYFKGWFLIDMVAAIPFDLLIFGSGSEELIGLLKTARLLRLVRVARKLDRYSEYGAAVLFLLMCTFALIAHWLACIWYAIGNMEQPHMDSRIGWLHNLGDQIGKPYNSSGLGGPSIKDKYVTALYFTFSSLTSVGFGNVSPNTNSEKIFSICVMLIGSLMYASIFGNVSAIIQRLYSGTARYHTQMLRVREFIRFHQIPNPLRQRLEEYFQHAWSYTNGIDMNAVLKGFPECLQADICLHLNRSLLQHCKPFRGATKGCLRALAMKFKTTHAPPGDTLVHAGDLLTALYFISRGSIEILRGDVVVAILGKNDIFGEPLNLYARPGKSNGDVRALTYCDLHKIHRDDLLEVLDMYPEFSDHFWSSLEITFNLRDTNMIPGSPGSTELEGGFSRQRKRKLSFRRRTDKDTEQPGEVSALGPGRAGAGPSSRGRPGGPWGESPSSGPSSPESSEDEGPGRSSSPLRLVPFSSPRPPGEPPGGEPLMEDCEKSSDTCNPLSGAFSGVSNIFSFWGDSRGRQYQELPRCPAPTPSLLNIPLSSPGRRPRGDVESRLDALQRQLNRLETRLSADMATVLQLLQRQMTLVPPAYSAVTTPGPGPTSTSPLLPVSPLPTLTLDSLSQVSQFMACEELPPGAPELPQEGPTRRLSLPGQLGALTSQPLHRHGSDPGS

This assay concerns the target human ether-à-go-go-related gene (hERG) potassium channel (human, UniProt Q12809). The assay is described as follows: primary screen, population patch clamp on CHO cells stably expressing hERG.
With `Cc1ccc(C(C)C)c(Oc2cnccn2)c1`, the “hERG current change (%, negative = inhibition) at 10uM” value is on record as 6.9%. With `O=C(NCCS(=O)(=O)N1CCN(c2ccccc2F)CC1)c1cccc(Br)c1` the figure was 2.34%. Regarding `Cc1ccc(C)c(S(=O)(=O)NCc2ccc(C(=O)NCc3ccccn3)cc2)c1`, the “hERG current change (%, negative = inhibition) at 10uM” value is on record as -2.6%. The same measure for `CC(C)CN(CC(C)C)S(=O)(=O)N1CCC(C(=O)NCc2ccc(F)cc2)CC1`: 12.9%; for `Cc1ccc(C2=NOC(C)(c3nnc(-c4ccc(Cl)cc4)o3)C2)cc1` (centres unmarked): 6.5%; for `O=C(Cn1c2[n+](c3ccc(C(F)(F)F)cc31)CCCCC2)c1ccc2c(c1)OCCO2.[Cl-]`: 5.15%.

For the molecule `CCCS(=O)(=O)N1CCCC(c2nc(-c3ccc(OC)cc3)no2)C1` (centres unmarked), the “hERG current change (%, negative = inhibition) at 10uM” value is -0.5%. The same measure for `CN(C(=O)c1ccc2c(c1)OCO2)C1(C(=O)NC2CCCCC2)CCCCC1`: 0.646%; for `CC(=O)Nc1cc(NC(=O)C2C3C=CC(C3)C2C(=O)O)ccc1Cl` (centres unmarked): 14.5%. Regarding `CN(C(=O)COC(=O)c1ccc(S(=O)(=O)N2CCCC2)cc1)c1ccccc1`, the “hERG current change (%, negative = inhibition) at 10uM” value amounted to 1.3%. Consider `NS(=O)(=O)c1ccc(CCNC(=O)c2ccc3c(c2)N(Cc2ccccc2)CCS3)cc1`, for which the “hERG current change (%, negative = inhibition) at 10uM” value worked out at 18.8%. The same measure for `COc1ccc(S(=O)(=O)N2CCN(C(=O)c3c(-c4ccccc4)noc3C)CC2)cc1`: -2.08%; for `Cn1c(=O)n(CCOc2ccc(Cl)cc2Cl)c2ccccc21`: -2.26%; for `Cc1ncoc1C(=O)N1CCCC(C(=O)c2cccc(OC(C)C)c2)C1` (centres unmarked): 10.3%.

As for `CC(=O)Oc1cc2c3c(c1)/C(=C1/SC(=S)NC1=O)C(=O)N3C(C)(C)C=C2C`, the “hERG current change (%, negative = inhibition) at 10uM” value worked out at 73.5%. The same measure for `COc1cc(OC)cc(C(=O)Nc2ccc(N(C)C)c3ccccc23)c1`: 16.4%. With `O=[N+]([O-])c1cccnc1Oc1cccnc1` the figure was 27.4%; with `CC1CCCCC12NC(=O)N(CC(=O)N1CCc3ccccc31)C2=O` (centres unmarked), 6.97%. With `COc1ccc(CNC(=O)C2CC(c3cccc([N+](=O)[O-])c3)=NO2)cc1` (centres unmarked) the figure was -24.1%; with `Cc1cc(NC(=O)C(=O)NCCN2CCN(C(=O)c3cccs3)CC2)ccc1Br`, -63.7%; with `COC(=O)c1cc(C(=O)CC(C)C)c[nH]1`, 16.7%. As to `O=C(Nc1cccc2ncccc12)C(Cl)(Cl)Cl`, the “hERG current change (%, negative = inhibition) at 10uM” value is recorded as -4.64%. With `Cc1nn(CC(=O)N2CCOCC2)c(=O)c2nn(-c3ccccc3)c(C)c12` the figure was 8.35%; with `O=C(OCC(=O)N1CCN(C(=O)c2ccco2)CC1)c1cccc(S(=O)(=O)N2CCc3ccccc32)c1`, -84%.

Consider `COC(=O)c1cc2n(n1)CCN(Cc1ccccc1Cl)C2=O`, for which the “hERG current change (%, negative = inhibition) at 10uM” value is listed as -0.101%. The same measure for `CCn1c2ccc(F)cc2c2nc3ccccc3nc21`: 3.44%; for `CCC1(c2ccccc2)NC(=O)N(CC(=O)N(C)Cc2ccccc2)C1=O` (centres unmarked): 14.8%. As to `S=C(Nc1cc(Cl)cc(Cl)c1)N1CCN(c2ccccn2)CC1`, the “hERG current change (%, negative = inhibition) at 10uM” value turned out to be 14.5%. In the case of `c1cncc(CNc2nc(N3CCOCC3)nc(N3CCOCC3)n2)c1`, the “hERG current change (%, negative = inhibition) at 10uM” value stood at 7.09%.

As for `COC(=O)c1c(-c2cccnc2)csc1NC(=O)c1cc(C)on1`, the “hERG current change (%, negative = inhibition) at 10uM” value is 40.2%. The same measure for `CCN(CC)S(=O)(=O)c1ccc(Cl)c(OC)c1`: -4.71%.

With `COc1ccc(CNC(=O)C(=O)NCC2OCCN2S(=O)(=O)c2ccc(OC)c(OC)c2)cc1` (centres unmarked), the “hERG current change (%, negative = inhibition) at 10uM” value was 7.3%. The same measure for `CCCCSc1nc2c(cnn2-c2ccc(Cl)cc2)c(=O)[nH]1`: 15.5%.

Regarding `CC1CCN(S(=O)(=O)c2ccc3nc(N4CCN(c5ccccc5)CC4)ccc3c2)CC1`, the “hERG current change (%, negative = inhibition) at 10uM” value is recorded as 13.2%. With `CCn1c2ccccc2c2cc(NC(=O)c3ccccc3[N+](=O)[O-])ccc21` the figure was 14%; with `COc1ccc(Cc2nnc(NC(=O)c3ccccc3F)s2)cc1OC`, 9.86%. With `Cc1ccc(S(=O)(=O)N[C@H](C(=O)OCC(=O)NC(=O)Nc2ccc3c(c2)OCCO3)C(C)C)cc1` the figure was 8.74%.

Turning to `CCOc1ccc(S(=O)(=O)NCc2cccnc2)cc1C(C)C`, the “hERG current change (%, negative = inhibition) at 10uM” value is on record as 11%. The same measure for `Cc1noc(C)c1C(=O)N1CCC(C(=O)c2ccc(F)cc2F)CC1`: 10.9%. The same measure for `COc1ccccc1NC(=O)c1ccc(COc2ccccc2Br)o1`: -19.6%; for `C=CCn1cc(C(=O)NCc2cccnc2)c(=O)c2cc(S(=O)(=O)N(CC)CC)ccc21`: -74.4%.

Turning to `O=[N+]([O-])c1ccc2nc(SCc3ccccc3Cl)sc2c1`, the “hERG current change (%, negative = inhibition) at 10uM” value was -2.18%.

With `Cc1cc(C)cc(CSCC(=O)NN=C2CCCCCC2)c1`, the “hERG current change (%, negative = inhibition) at 10uM” value is -44.7%. The same measure for `CC(=O)NS(=O)(=O)c1ccc(NS(=O)(=O)c2ccccc2[N+](=O)[O-])cc1`: 5.18%; for `Cc1ccc(NC(=S)N(Cc2ccc(Br)cc2)Cc2ccc(C(=O)O)cc2)cc1C`: 32%; for `CCCC(=O)c1c(C)c2ccccc2n1C`: 5.38%. On to `CCn1c(Cc2cccc3ccccc23)nnc1SCC(=O)Nc1nccs1`, for which the “hERG current change (%, negative = inhibition) at 10uM” value stood at 4.13%. The same measure for `O=C1Nc2ccccc2O/C1=C\c1ccccc1Br`: 4.08%; for `Cc1ccc(Cl)cc1NC(=O)C1CC1c1ccccc1` (centres unmarked): 5.23%. The same measure for `Cc1ccc(NC(=O)Cn2cccc2)c(C)c1`: 2.32%; for `CC(C)(C)NC(=O)NC(=O)COC(=O)c1c(F)cccc1Cl`: 34.1%; for `CC(C)CCNC(=S)Nc1ccc(F)cc1`: 8.56%.

In the case of `CCCCC(CC)CNC(=O)c1[nH]c(C)c(C(C)=O)c1C` (centres unmarked), the “hERG current change (%, negative = inhibition) at 10uM” value is -3.05%.

`CCC(CC)C1=NN2C(=N)/C(=C/c3ccc(OC(=O)c4ccco4)cc3)C(=O)N=C2S1`: the “hERG current change (%, negative = inhibition) at 10uM” value was 20.1%. The same measure for `CS(=O)(=O)c1ccc(CNC(=O)C2(C(F)(F)F)C/C(=C\Cc3ccccc3)CCCO2)cc1` (centres unmarked): -11.6%; for `CN(C)S(=O)(=O)c1cccc(NC(=O)COC(=O)c2cccc(S(=O)(=O)N3CCc4ccccc4C3)c2)c1`: 10.2%; for `COCCN(Cc1ccccc1)C(=O)c1cccc(S(=O)(=O)N2CCN(c3ccc(F)cc3)CC2)c1`: -64.6%. For the molecule `COc1ccccc1C(=O)C1CCCN(C(=O)c2cnn(C(C)C)c2)C1` (centres unmarked), the “hERG current change (%, negative = inhibition) at 10uM” value is 5.63%.

On to `O=C(Nc1ccccc1O)c1cccc(S(=O)(=O)N2CCOCC2)c1`, for which the “hERG current change (%, negative = inhibition) at 10uM” value came out at 17.7%.

Regarding `S=C(NCc1cccnc1)Nc1cccc(Cl)c1`, the “hERG current change (%, negative = inhibition) at 10uM” value is -9.78%. In the case of `Cc1cccc2c1N(C(=O)CN1C(=O)c3ccccc3C1=O)C(C)(C)c1ssc(=S)c1-2`, the “hERG current change (%, negative = inhibition) at 10uM” value came to 14.5%. With `COc1ccc(-c2cc(=O)oc3c(C)c(OC(C)C(=O)Nc4ccc(CN5CCOCC5)cc4)ccc23)cc1` (centres unmarked) the figure was -5.78%; with `COc1cccc(Nc2nc(-c3ccccc3O)nc3ccccc23)c1`, 20.5%; with `Cn1nnnc1SCCNC(=O)C1CCC(=O)N(CCc2ccccc2)C1` (centres unmarked), 5.67%. The same measure for `COc1ccc(Cl)cc1C(=O)Nc1ccc(Br)c(C)n1`: 13.2%; for `Cc1ccc2c(cnn2C(=O)CCCC(=O)NCc2ccc(Cl)cc2)c1`: -31.8%.

Regarding `CCOC(=O)N1CCN(S(=O)(=O)c2ccc(Br)s2)CC1`, the “hERG current change (%, negative = inhibition) at 10uM” value was -9.22%. On to `CC1(c2nnc(-c3ccc(F)cc3)o2)CC(c2ccncc2)=NO1` (centres unmarked), for which the “hERG current change (%, negative = inhibition) at 10uM” value is -8.44%.

Consider `CCOC(=O)CN1C(=O)COc2ccc(Cl)cc21`, for which the “hERG current change (%, negative = inhibition) at 10uM” value was determined as 19.2%.

Regarding `CCOP(=O)(OCC)/C(=N/OC(=O)c1ccccc1C)C(N)=O`, the “hERG current change (%, negative = inhibition) at 10uM” value was -1.22%. With `COc1cccc(-c2cc(C(F)(F)F)c(C#N)c(=O)[nH]2)c1` the figure was 21%. `CCOC(=O)/C(C(N)=NCCO)=C(/O)c1ccccc1`: the “hERG current change (%, negative = inhibition) at 10uM” value worked out at 4.47%.

For `COc1ccc(CN(Cc2cccn2C)S(=O)(=O)c2ccc(F)cc2)cc1`, the “hERG current change (%, negative = inhibition) at 10uM” value was -2.89%. The same measure for `O=C(O)C1C2C=CC3(CN(CC(O)COc4ccccc4)C(=O)C13)O2` (centres unmarked): 17.4%; for `O=C(Nc1cc(S(=O)(=O)N2CCOCC2)ccc1N1CCOCC1)c1cc2c(s1)CCC2`: -5.63%; for `CCOc1ccc2[nH]c(=O)c(CN(CCO)Cc3nnnn3CCc3ccccc3)cc2c1`: -27.9%. The same measure for `CCOCC(=O)Nc1ccccc1C(=O)N1CCOCC1`: -0.166%. The same measure for `O=C(O)c1cccnc1Sc1ccccc1Cl`: 17.1%; for `O=C(CSc1nc(-c2ccc(Cl)cc2)cs1)Nc1cccc([N+](=O)[O-])c1`: 14.5%. With `CCOC(=O)N1CCC(N2C(=O)c3ccc(C(=O)NCc4ccco4)cc3C2=O)CC1`, the “hERG current change (%, negative = inhibition) at 10uM” value is -9.63%. For the molecule `Cc1c(C(c2ccccc2O)c2c(C)n(C)n(-c3ccccc3)c2=O)c(=O)n(-c2ccccc2)n1C`, the “hERG current change (%, negative = inhibition) at 10uM” value was -10.4%.

Turning to `Cc1ccc(S(=O)(=O)N2CCOCC2)cc1C(=O)Nc1ccc2c(c1)CCC2`, the “hERG current change (%, negative = inhibition) at 10uM” value is reported as -10.6%. The same measure for `COC(=O)C(=O)C/C(=N/Nc1ncnc2ccccc12)c1ccc(Cl)cc1`: -9.31%; for `Fc1cccc(Nc2nc(Cl)nc(Cl)n2)c1`: 5.87%; for `Cc1onc(-c2ccccc2)c1C(=O)Nc1nc(-c2ccccc2)cs1`: -12.1%. With `Cn1cc(/C=C/C(=O)N2CCCC(C(=O)c3ccc(C(C)(C)C)cc3)C2)cn1` (centres unmarked) the figure was -27.4%.
